# In PubChem BioAssay AID686979 (National Center for Advancing Translational Sciences (NCATS), 2013):
# Hit rate of the full screen: of about 420,000 compounds, about 50,000 (12%) were called active. This list was built around the results that the source calls inconclusive (neither active nor inactive); the mix of calls is not that of the screen. Calls come from the whole dose curve; as a rule, active = well fitted inhibition curve with a large enough effect; inconclusive = small, poorly fitted or top-dose-only effect; inactive = flat fitted curve, though single readings scatter. No potency is given beside an inconclusive call; the fits are too rough.
# Experiment: qHTS for Inhibitors of human tyrosyl-DNA phosphodiesterase 1 (TDP1): qHTS in cells in presence of CPT; note: nearly all actives have a fitted effect of over 55% in size
# Details: chicken DT40 Tdp1-/-;hTDP1 cells + 20 nM CPT, ATP luminescence, 48 h; activity change, negative = growth inhibition: at 46.2 µM (top of the series) unless noted
# Procedure, shortened: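 Chicken DT40 Tdp1-/- cells stably complemented with human TDP1 were seeded at 400 cells/well in medium containing 20 nM camptothecin, exposed to pin-transferred compounds, and grown at 37 °C for at least 48 hr. Viability was read as ATP luminescence.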
# % is set by controls: 0 for no effect and ±100 for the full control effect; potency is the fitted concentration of half-maximal effect; tags give direction and shape of the fitted curve.
Structure (SMILES),"activity change, negative = growth inhibition",Potency
CC1CCCCN1S(=O)(=O)c1ccc(NC(=O)CSc2nnnn2C)cc1 (stereo not drawn),inactive: -7.53%,–
O[C@@H]1CN(CC2CCCCC2)[C@@H](c2ccc(Cl)cc2)C[C@H]1n1cc(-c2ccc(F)cc2)nn1,–,"inconclusive [inhibitor, single point]"
Cc1nc(SCc2ccc(O)c([N+](=O)[O-])c2)n[nH]1,–,"inconclusive [inhibitor, single point]"
Cc1nc(-c2ccccc2)sc1-c1nc(-c2ccccc2)ncc1S(=O)(=O)c1ccccc1,–,"inconclusive [inhibitor, single point]"
CC(SCc1ccccc1)C(=O)N/N=C/c1cc2c(cc1Br)OCO2 (stereo not drawn),–,"inconclusive [inhibitor, single point]"
Nc1c(-c2ccc(F)cc2)nc2ncccn12,inactive: 13%,–
CC1(C)CC(=O)C=C(c2ccc(-c3cccc(C(N)=O)c3)cc2)C1=O,inconclusive: -33.1% [inhibitor],–
CCC(C)c1ccccc1NC(=O)COC(=O)c1ccc(N2CCCC2)c([N+](=O)[O-])c1 (stereo not drawn),–,active: 20.6 µM
O=C(Oc1ccc2cc(Br)ccc2c1)c1cccnc1,–,"inconclusive [inhibitor, single point]"
COc1ccc(N2CCN(S(=O)(=O)CCNC(=O)C34CC5CC(CC(C5)C3)C4)CC2)cc1,–,"inconclusive [inhibitor, single point]"
Cc1ccccc1OCc1nnc(SCCN2CCCC2)n1-c1ccccc1,–,active: 23.1 µM
CCCc1nc2oc3c(NCCCN(C)C)ncnc3c2c2c1CCCC2,–,"inconclusive [inhibitor, single point]"
O=C(c1cccc(F)c1)N1CCC2(CC1)CCN(c1cccc(-c3ccccc3)c1)CC2,–,"inconclusive [inhibitor, single point]"
Cc1cccc(N=C2C(=O)Nc3c(Cl)cccc32)c1,–,"inconclusive [inhibitor, single point]"
CC[N+]1(CC)CC2=Cc3c(ccc4ccccc34)C(C)C2C1 (stereo not drawn),–,active: 5.8 µM
Cc1ccc(NC(=O)Nc2ccc3c(c2)OCO3)c(OC(F)F)c1,inactive: -1.48%,–
Cc1cn([C@H]2C[C@H](O)[C@@H](CNCc3cnc(N4CCOCC4)nc3)O2)c(=O)[nH]c1=O,inactive: 7.8%,–
CC(=O)N(Cc1ccccc1)Cc1cn(CCC#N)nc1-c1cccc([N+](=O)[O-])c1,inactive: 8.14%,–
O=C(Nc1ccccc1)N(Cc1cccs1)C1CCCC1,–,"inconclusive [inhibitor, single point]"
CC(CCc1ccccc1)NC(=O)c1ccc(NC(=O)c2cccc(Br)c2)cc1 (stereo not drawn),–,"inconclusive [inhibitor, single point]"
Cc1cccc(OCc2occc2C(=O)Nc2cccc(-n3cnnn3)c2)c1,inactive: -22.7%,–
CCOc1ccc(C(=O)Nc2ccc(S(=O)(=O)N3CCOCC3)cc2)cc1OCC,–,"inconclusive [inhibitor, single point]"
CCOC(=O)c1c(NC(=O)CSc2nc3ccc(OC)cc3[nH]2)sc2c1CC(C)(C)NC2(C)C,–,"inconclusive [inhibitor, single point]"
COc1ccc(Nc2nc3ccccc3c3nnc(C)n23)cc1Cl,–,active: 10.3 µM

Structure (SMILES),"activity change, negative = growth inhibition",Potency
CCN1CCCC1CN(Cc1cc2ccc(C)c(C)c2[nH]c1=O)C(=O)Nc1ccccc1OC (stereo not drawn),–,active: 18.4 µM
CCN(C(=O)CCn1cnc2onc(-c3ccc(F)cc3)c2c1=O)c1ccc(OC)cc1,–,active: 16.4 µM
CCCC(C)(C)C(=O)N1CCC1(C)C(=O)Nc1cccc(OC)c1 (stereo not drawn),–,"inconclusive [inhibitor, single point]"
Cc1cc(C)cc(NC(=O)C(=O)NCc2ccccn2)c1,inactive: -5.08%,–
CCOC(=O)CCSc1nc(C)c2cc(OC)ccc2n1,inactive: -18.7%,–
C=C(Br)Cn1c(CCC)nc2ccccc21,–,"inconclusive [inhibitor, single point]"
Cn1nccc1C(=O)Nc1ccc2c(c1)OCO2,inactive: 1.46%,–
COc1cc2c(C(F)(F)F)c(-c3ccsc3)oc(=O)c2cc1OC,–,"inconclusive [inhibitor, single point]"
O=C(NC1CCCc2c1cnn2-c1ccccc1F)c1ccccc1N1CCOCC1 (stereo not drawn),–,active: 16.4 µM
CCc1cccc(-n2nnc(-c3nc(-c4ccccc4Cl)no3)c2N)c1,inactive: 7.58%,–
O=C(Cc1ccc(-c2ccccc2)cc1)NO,–,"inconclusive [inhibitor, full curve]"
CCOC(=O)C1CCCN(c2c(Nc3ccc(C)c(C)c3)c(=O)c2=O)C1 (stereo not drawn),–,active: 16.4 µM
CCCCOc1ccccc1C1NC(=O)NC(C)=C1C(=O)OCCOC (stereo not drawn),inactive: -2.52%,–
Cc1ccc(Nc2nc(N)nc(CCl)n2)c(C)c1,–,active: 6.51 µM
CCn1cc(C(=O)NC2CCCCCC2)c(=O)c2ccc(C)nc21,–,"inconclusive [inhibitor, full curve, poor fit]"
CCn1ccnc1CN(C)Cc1cn(-c2ccc(C)cc2)nc1-c1ccc(F)cc1,–,"inconclusive [inhibitor, single point]"
Cc1cccc(N2CCN(C(=O)c3cnn(-c4cccc(Cl)c4C)c3C3CCNCC3)CC2)c1C,–,active: 3.66 µM
CC(=O)Nc1ccc(/C(C)=N/NC(=O)CN(c2ccccc2Br)S(C)(=O)=O)cc1,inconclusive: -32.4% [inhibitor],–
C=CCOc1ccccc1CN1CCCC(CCC(=O)N(C)CCc2ccccn2)C1 (stereo not drawn),inactive: 2.82%,–
Cc1ccc(NC(=O)CSc2cn(CC(=O)N3CCCCCC3)c3ccccc23)cc1,inactive: -23.2%,–
O=C(Nc1ccccc1)C1Cc2c(-c3ccc4c(c3)OCO4)ccnc2O1 (stereo not drawn),–,"inconclusive [inhibitor, single point]"
CCCN(CCC)CCCNC(=O)c1cc2c(=O)n(C)c3ccccc3c2n1C,–,"inconclusive [inhibitor, single point]"
CCOc1ccc(-n2c(O)c(/C=N/Nc3nnc(C)c(=O)[nH]3)c3ccccc3c2=O)cc1,–,active: 0.651 µM
CC(=O)Nc1ccc(NC(=O)C(C)OC(=O)c2cc(S(=O)(=O)N(C)C)ccc2N2CCCC2)cc1 (stereo not drawn),–,"inconclusive [inhibitor, full curve, poor fit]"
